# Part of at least one peptide drawing is inferred or uncertain, most often the ends. *1 amine or outer side, *2 acyl side, *3 side chain or, on linkers, in order; H or OH if unused. Where a SMILES comes first, the peptide text is derived from it. Side-chain parts run from the residue outwards. The star is where a group is joined. C18 diacid = O=C(O)CCCCCCCCCCCCCCCCC(=O)*; γGlu = O=C(O)[C@H](CCC(=O)[*:2])N[*:1]; AEEA = NCCOCCOCC(=O)O
# What was measured:
# Y2 receptor = biological target: T1, Y2 receptor (Homo sapiens, UniProt P49146); assay: Y2 receptor ACTOne based FLIPR assay (cAMP biosensor); assay type: cell-based; details: Table 2, PP analogues; ACTOne HEK-293 cells
# T1 construct: host or cells: ACTOne HEK-293 cells
# T1 sequence (P49146 1-381): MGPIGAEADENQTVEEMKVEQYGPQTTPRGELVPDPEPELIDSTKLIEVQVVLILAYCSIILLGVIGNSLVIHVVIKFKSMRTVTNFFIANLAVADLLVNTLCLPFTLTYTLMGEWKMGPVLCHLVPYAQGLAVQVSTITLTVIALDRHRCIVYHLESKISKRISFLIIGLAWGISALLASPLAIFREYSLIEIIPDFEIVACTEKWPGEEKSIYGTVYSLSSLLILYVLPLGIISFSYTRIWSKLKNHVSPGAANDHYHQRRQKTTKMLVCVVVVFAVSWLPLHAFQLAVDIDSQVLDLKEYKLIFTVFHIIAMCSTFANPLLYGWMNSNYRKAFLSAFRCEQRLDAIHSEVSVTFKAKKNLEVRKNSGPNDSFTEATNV
# Excerpt: (§1) ACTOne™ is an easily scaleable cAMP biosensor HTS platform for measurement of Gs and Gi coupled 7™ receptor signalling from BD Biosciences (San Jose, Calif.). The cells express a biosensor developed around a modified rat olfactory cyclic nucleotide gated (CNG) calcium channel—a fairly non-discriminatory ion channel that responds to cAMP and cGMP. The CNG has been engineered to be cAMP selective and thus function as a cAMP responsive biosensor that signals through calcium or membrane potential responsive dyes. Y2 or Y4 receptor expressing ACTOne HEK-293 cells are obtained from BD Biosciences. The cells are loaded with a calcium responsive dye that only distributes in the cytoplasm. Probenecid, an inhibitor of the organic anion transporter is added to prevent the dye from leaving the cell. A phosphodiesterase inhibitor is added to prevent formatted cAMP from being degraded. Isoproterenol (an β1/β2 agonist) is added to activate the adenylate cyclase. When an Y2 or Y4 receptor agonist is added, the adenylate cyclase is inactivated. The decreased calcium concentration in the cytoplasm is then detected as an increase in fluorescence. Together with the test substance, Isoproterenol at a concentration matching EC80, is added to all wells. • The cells are plated out in Greiner 384-well plates. […] The plates are covered with tinfoil to avoid light (the dye can be excited by the daylight, which results in higher baseline and variation). • The FLIPR (FLIPRtetra from Molecular Devices, CA, USA) adds 1 μl sample and 1 μl isoproterenol (0.05 μM final concentration) at the same time. • The fluorescence signal from the wells is measured 330 seconds after sample addition on the FLIPR.
# (§2) Receptor potency of PYY and PP derivatives and analogues thereof was determined using the method “Measuring Y2 or Y4 Receptor Activity Using ACTOne Based FLIPR Assay” as described herein.
# Y4 receptor = biological target: T2, Y4 receptor (Homo sapiens, UniProt P50391); assay: Y4 receptor ACTOne based FLIPR assay (cAMP biosensor); assay type: cell-based; details: Table 2, PP analogues; ACTOne HEK-293 cells
# T2 construct: host or cells: ACTOne HEK-293 cells
# Excerpt: as §1, §2
# T2 sequence (P50391 whole entry): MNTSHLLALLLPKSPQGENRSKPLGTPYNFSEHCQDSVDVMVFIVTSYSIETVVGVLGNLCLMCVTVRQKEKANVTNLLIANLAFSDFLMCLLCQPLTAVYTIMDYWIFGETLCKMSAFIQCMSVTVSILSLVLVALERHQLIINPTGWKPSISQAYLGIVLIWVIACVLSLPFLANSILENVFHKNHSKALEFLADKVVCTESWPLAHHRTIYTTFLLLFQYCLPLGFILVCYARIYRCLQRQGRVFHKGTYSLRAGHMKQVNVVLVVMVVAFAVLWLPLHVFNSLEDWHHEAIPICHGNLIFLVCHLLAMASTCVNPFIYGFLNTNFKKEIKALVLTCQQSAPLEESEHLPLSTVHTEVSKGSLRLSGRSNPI
smiles,measurement,setting,value
"CC[C@H](C)[C@H](NC(=O)[C@H](Cc1ccc(O)cc1)NC(=O)[C@H](CCCNC(=N)N)NC(=O)[C@H](CCCCNC(=O)COCCOCCNC(=O)COCCOCCNC(=O)CC[C@H](NC(=O)CCCCCCCCCCCCCCCCC(=O)O)C(=O)O)NC(=O)[C@H](CC(C)C)NC(=O)[C@H](CC(=O)O)NC(=O)[C@H](C)NC(=O)[C@H](C)NC(=O)[C@H](Cc1ccc(O)cc1)NC(=O)[C@H](CCC(N)=O)NC(=O)[C@H](C)NC(=O)[C@H](CC(C)C)NC(=O)[C@H](CCC(N)=O)NC(=O)[C@H](CCC(=O)O)NC(=O)[C@@H]1CCCN1C(=O)[C@@H](NC(=O)[C@H](C)NC(=O)[C@H](CC(N)=O)NC(=O)[C@H](CC(=O)O)NC(=O)CNC(=O)[C@@H]1CCCN1C(=O)[C@H](Cc1ccc(O)cc1)NC(=O)[C@@H](NC(=O)[C@@H]1CCCN1C(=O)[C@H](CCC(=O)O)NC(=O)[C@H](CC(C)C)NC(=O)[C@@H]1CCCN1)C(C)C)[C@@H](C)O)C(=O)N[C@@H](CC(N)=O)C(=O)N[C@@H](CC(C)C)C(=O)N[C@@H](CC(C)C)C(=O)N[C@H](C(=O)N[C@@H](CCCNC(=N)N)C(=O)N1CCC[C@H]1C(=O)N[C@@H](CCCNC(=N)N)C(=O)N[C@@H](Cc1ccc(O)cc1)C(N)=O)[C@@H](C)O [SEQ ID NO: 49, N-epsilon25-[2-(2-{2-[2-(2-{2-[(S)-4-Carboxy-4-(17-carboxyheptadecanoylamino)butyrylamino]ethoxy}ethoxy)acetylamino]-ethoxy}ethoxy)acetyl][Leu17,Lys25,Leu30]hPP2-36] (H-PLEPVYPGDNATPEQLAQYAADLK([AEEA-AEEA-γGlu-C18 diacid])RYINLLTRPRY-NH2)",EC50,Y2 receptor,> 1 µM
same,EC50,Y4 receptor,> 1 µM
